The assay relates to M14 melanoma. In words: NCI-60 cell line screen, 48 h.

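Cultured in 96-well plates, cells were exposed to test compound for 48 hours across five concentrations. GI50 = concentration required for 50% inhibition of growth.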 A number of entries come with more than one value. The other results are left out here. An entry can have further records. The tests behind the records often covered other concentration ranges, not given here; a value can be the end of its range.

Take `CO[C@@H]1[C@H](OC(=O)NC(=O)CCl)CC[C@]2(CO2)[C@H]1[C@@]1(C)O[C@@H]1CC=C(C)C`: the GI50 is 178 nM and 7.16 µM.

The record behind these values is PubChem BioAssay (NCI).
